# Reference: PubChem BioAssay (NCATS)
# The inconclusive results got no clear call from the source; some entries with a clear call stand among them for comparison. No potency is given beside an inconclusive call; the fits are too rough. Activity calls are given as the source filed them. The call rests on the fitted dose curve; in most records, active means well fitted inhibition curve with a large enough effect; inconclusive means small, poorly fitted or top-dose-only effect; inactive means no such curve, though single readings can be large or run the other way.
# Target: Cytochrome P450 3A7 (Homo sapiens) (UniProt P24462)
# Chain of UniProt P24462 (P24462 whole entry, looked up): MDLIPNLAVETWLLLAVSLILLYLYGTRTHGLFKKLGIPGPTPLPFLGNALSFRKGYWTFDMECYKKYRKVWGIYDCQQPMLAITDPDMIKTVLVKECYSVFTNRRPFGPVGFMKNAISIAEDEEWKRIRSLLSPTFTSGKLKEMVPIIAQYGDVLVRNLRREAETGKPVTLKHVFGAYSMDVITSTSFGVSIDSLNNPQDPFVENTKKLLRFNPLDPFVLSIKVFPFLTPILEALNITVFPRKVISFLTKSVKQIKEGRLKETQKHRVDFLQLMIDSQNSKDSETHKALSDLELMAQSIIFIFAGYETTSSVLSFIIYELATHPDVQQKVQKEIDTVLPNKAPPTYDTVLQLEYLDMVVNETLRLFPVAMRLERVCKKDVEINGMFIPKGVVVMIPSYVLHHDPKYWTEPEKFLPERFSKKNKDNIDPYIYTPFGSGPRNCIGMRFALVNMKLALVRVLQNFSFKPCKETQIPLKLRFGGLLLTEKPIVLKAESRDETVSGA
# Experiment: Cytochrome P450 family 3 subfamily A member 7 (CYP3A7) small molecule antagonists: luciferase biochemical qHTS assay (AID 1963596); further: nearly all actives have a fitted effect of over 40% in size
# Conditions: P450-Glo CYP3A7 enzyme luminescence, 1 h; series mostly up to 57.4 µM; activity change, negative = inhibition: at the top concentration
# Outline: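 Enzyme-substrate mix + cpd (DMSO), 10 min RT; + NADPH regen system, 1 h RT; + luciferin detection reagent, 20 min RT; luminescence read. Proluciferin substrate, P450-Glo format, 1536-well qHTS.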
# On the % scale 0 is the no-effect control and ±100 the full control effect; potency means the concentration at half of the fitted maximal effect; tags describe the fitted curve by direction and shape.
Structure (SMILES),"activity change, negative = inhibition",Potency
CCCCCCCC(=O)[O-].CCCCCCCC(=O)[O-].[Zn+2],inactive: -22.4%,–
Nc1ccc(S(=O)(=O)Nc2cnc3ccccc3n2)cc1,–,"inconclusive [inhibitor, single point]"
Cc1ccc(C(Nc2ccccn2)c2ccc3cccnc3c2O)cc1 (configuration not stated),–,"inconclusive [inhibitor, single point]"
COc1ccc(C(=O)Oc2ccc(C(c3c(C)[nH][nH]c3=O)c3c(C)[nH][nH]c3=O)cc2)cc1,–,"inconclusive [inhibitor, partial curve]"
Oc1ccccc1,–,"inconclusive [inhibitor, partial curve]"
CC(C)=CCC/C(C)=C/CC/C(C)=C/CC/C=C(\C)CC/C=C(\C)CCC=C(C)C,inactive: -14.6%,–
Cn1c(=O)c2c(nc(CN3CCN(C(=O)C4CC4)CC3)n2Cc2cccc(F)c2)n(C)c1=O,inactive: -21.1%,–
CC(=O)c1ccc(NC(=O)Cn2cc(S(=O)(=O)Cc3ccccc3Cl)c3ccccc32)cc1,–,"inconclusive [inhibitor, full curve]"
CN(CC[C@@H](Oc1ccc(-c2ccccc2)cc1)c1ccc(F)cc1)CC(=O)O,–,"inconclusive [inhibitor, full curve]"
CC(=O)NC1=NN(C(C)=O)C(C)(c2ccccc2)S1 (configuration not stated),–,"inconclusive [inhibitor, partial curve, poor fit]"
CCOc1ccc(CNC(=O)Cn2c(=O)c3cccn3c3ccc(F)cc32)cc1,–,active: 0.425 µM
CC(C)NC[C@H](O)COc1cccc2ccccc12,–,"inconclusive [inhibitor, partial curve, poor fit]"
